Values joined by “and” are separate entries in the source; they are usually repeats but may differ in a detail not shown here. Equal values may be shown once. The whole screen tested about 390,000 compounds, of which about 4,700 (1.2%) were called active. The inconclusive results got no clear call from the source; some entries with a clear call stand among them for comparison. The call rests on the fitted dose curve; in most records, active means well fitted inhibition curve with a large enough effect; inconclusive means small, poorly fitted or top-dose-only effect, or another doubt; inactive means no such curve, though single readings can be large or run the other way. Potencies of inconclusive entries are doubtful fits and often do not repeat.
biological target: DNA polymerase eta (Homo sapiens) (UniProt Q9Y253); assay: qHTS for Inhibitors of Polymerase Eta; settings: recombinant Pol eta, fluorescent DNA replication assay; series mostly up to 114 µM; activity change, negative = inhibition: at the top concentration
Chain of UniProt Q9Y253 (Q9Y253 whole entry, looked up): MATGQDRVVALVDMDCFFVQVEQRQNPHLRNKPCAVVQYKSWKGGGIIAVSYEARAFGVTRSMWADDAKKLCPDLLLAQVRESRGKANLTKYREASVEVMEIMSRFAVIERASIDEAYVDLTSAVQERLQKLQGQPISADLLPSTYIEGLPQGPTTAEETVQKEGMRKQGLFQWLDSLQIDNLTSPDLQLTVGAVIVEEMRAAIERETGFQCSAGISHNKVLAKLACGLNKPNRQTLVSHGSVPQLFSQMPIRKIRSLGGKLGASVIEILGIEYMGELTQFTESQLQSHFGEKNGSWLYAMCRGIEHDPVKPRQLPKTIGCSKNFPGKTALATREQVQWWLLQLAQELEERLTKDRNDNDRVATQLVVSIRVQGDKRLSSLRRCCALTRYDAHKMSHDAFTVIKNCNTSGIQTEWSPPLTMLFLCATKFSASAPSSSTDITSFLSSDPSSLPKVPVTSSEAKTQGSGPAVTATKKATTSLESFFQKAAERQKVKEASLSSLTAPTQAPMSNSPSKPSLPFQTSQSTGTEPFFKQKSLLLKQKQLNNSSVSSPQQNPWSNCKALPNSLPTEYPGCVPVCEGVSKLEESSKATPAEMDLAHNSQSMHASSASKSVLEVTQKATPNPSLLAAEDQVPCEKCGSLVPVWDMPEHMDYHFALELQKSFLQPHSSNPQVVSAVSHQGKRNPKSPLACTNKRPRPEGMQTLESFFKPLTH
Method in brief: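 Pol eta at 10 nM preincubated with compounds 15 min at room temperature; reaction started with fluorescent substrate (50 nM final) and read kinetically at 0 and 10 min.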
On the % scale 0 is the no-effect control and ±100 the full control effect; potency means the concentration at half of the fitted maximal effect; tags describe the fitted curve by direction and shape.

| SMILES | Potency | activity change, negative = inhibition |
| --- | --- | --- |
| O=C(OCC(=O)c1cccc2ccccc12)c1ccc(CO)cc1 | inconclusive: 3.55 µM [inhibitor, full curve, poor fit] | – |
| CCCCCC(=O)N1C[C@H](O)[C@@H](n2cc(COC(=O)c3ccccc3)nn2)C[C@@H]1c1ccc(C)cc1 | inconclusive: 89.1 µM [inhibitor, partial curve, poor fit] | – |
| O=C(O)C(Oc1ccc2c3c(c(=O)oc2c1)CCC3)c1ccccc1 (stereo unspecified) | inconclusive: 35.5 µM [inhibitor, partial curve, poor fit] | – |
| C#CCOCCOCCOCCNc1nc(N2CCN(C(=O)CCCCCCCCCCNC(=O)[C@H](CCCCN)n3cc(C[C@@H](C)CC)nn3)CC2)nc(N2CCN(C(=O)CCCCCCCCCCNC(=O)[C@@H]([C@H](C)O)n3cc(C)nn3)CC2)n1 | active: 79.4 µM | – |
| COCCCNC(=O)C1CC(=O)N(CCc2ccc(F)cc2)C1 (stereo unspecified) | inconclusive: 100 µM [inhibitor, single point] | – |
| CN(C(=S)NC(=O)c1ccc(Cl)cc1)C1CCCCC1 | inconclusive: 50.1 µM [inhibitor, full curve, poor fit] | – |
| O=C(Oc1cccc([N+](=O)[O-])c1)c1ccc2c(=O)n3c(nc2c1)CCC3 | active: 28.2 µM | – |
| O=C(O)CCc1ccc(-c2cccs2)n1NC(=O)c1ccco1 | inconclusive: 25.1 µM [inhibitor, partial curve, poor fit] | – |
| CCC(NC(=O)C1CCCO1)c1ccccc1 (stereo unspecified) | – | inactive: -22% |
| CCCCCCC/C=C\CCCCCCCCC(=O)O | inconclusive: 22.4 µM [inhibitor, single point] | – |
| CCC(=O)NC(c1cccs1)c1ccc2cccnc2c1O (stereo unspecified) | – | inactive: -15.4% |
| CCC(=O)Nc1ccc(Nc2nc(C)c([N+](=O)[O-])c(Nc3ccc(NC(=O)CC)cc3)n2)cc1 | inconclusive: 0.708 µM [inhibitor, full curve, poor fit] | – |
| O=C1C2C3C=CC(CC3)C2C(=O)N1c1nccs1 (stereo unspecified) | inconclusive: 12.6 µM [inhibitor, full curve, poor fit] | – |
| Cc1nc2cc3ccccc3cc2n1C | inconclusive: 89.1 µM [inhibitor, partial curve, poor fit] | – |
| COc1ccc(OC)c(/C=N/NC(=O)c2csc3ccccc23)c1 | inconclusive: 10 µM [inhibitor, full curve] | – |
| Cc1cc(=O)oc2cc(OCC(=O)N3CCOCC3)ccc12 | inconclusive: 17.8 µM [inhibitor, full curve, poor fit] | – |
| CC1CCN(C(=O)CSc2nc(=O)n3cc(Cl)ccc3n2)CC1 | inconclusive: 22.4 µM [inhibitor, full curve] | – |
| CCn1c(=O)n(-c2ccc(C)c(F)c2)c(=O)c2sc3ccccc3c21 | – | inactive: 0.895% |
| CCCCCCCCCCCCN1[C@@H](CC(=O)OC)c2cc(F)cc(F)c2S1(=O)=O | inconclusive: 31.6 µM [inhibitor, partial curve, poor fit] | – |
| C/C(=N/NC(=O)CNC(=O)c1cccnc1)c1ccccc1 | – | inactive: -10.5% |
| COc1cccc(CNC(=O)COC(=O)c2c(C)nn(-c3ccccc3)c2Cl)c1 | active: 12.6 µM | – |

| SMILES | Potency | activity change, negative = inhibition |
| --- | --- | --- |
| Cc1ccc(-c2nc3nc(C)cc(N4CCN(c5cc(Cl)ccc5C)CC4)n3n2)cc1 | – | inactive: -13.1% |
| O=c1oc2ccccc2c2oc3cc(O)c(O)cc3c12 | active: 4.47 µM | – |
| Cc1cc(=O)n2[nH]c(-c3sccc3-n3c(C)ccc3C)cc2n1 | active: 22.4 µM | – |
| O=C(Nc1nc(-c2cccs2)cs1)c1ccc([N+](=O)[O-])o1 | active: 79.4 µM | – |
| C[C@H](NC(=O)c1cc2c([nH]c3ccccc32)c(-c2ccccc2)n1)C(=O)O | inconclusive: 28.2 µM [inhibitor, single point] | – |
| O=C(Nc1ccc(Cl)c(C(F)(F)F)c1)NC1CC2CCCC(C1)N2Cc1ccccc1 (stereo unspecified) | – | inactive: -15% |
| CCCCCCc1cc2cc(-c3nnc(-c4cc(OC)c(OC)c(OC)c4)o3)c(=O)oc2cc1O | inconclusive: 89.1 µM [inhibitor, single point] | – |
| Cc1ccc(S(=O)(=O)NCCc2csc(-c3ccc(Cl)cc3)n2)cc1 | inconclusive: 79.4 µM [inhibitor, partial curve, poor fit] | – |
| N#Cc1c(NC(=O)c2ccccc2Cl)n(Cc2ccccc2)c2nc3ccccc3nc12 | active: 35.5 µM | – |
| O=C(CN1C(=O)/C(=C/c2cccc(Br)c2)SC1=S)NCCCN1CCOCC1 | inconclusive: 28.2 µM [inhibitor, partial curve, poor fit] | – |
| COc1ccc(-n2ccnc2SCC(=O)Nc2nnc(C)s2)cc1 | inconclusive: 100 µM [inhibitor, single point] | – |
| Cc1ccccc1N(C)S(=O)(=O)c1nnc(NC(=O)c2ccccc2F)s1 | inconclusive: 100 µM [inhibitor, partial curve, poor fit] and inconclusive: 50.1 µM [inhibitor, partial curve, poor fit] | – |
| Cn1nc(C(=O)NCc2cccc(Cl)c2)c2c1-c1ccccc1S(=O)(=O)C2 | inconclusive: 89.1 µM [inhibitor, partial curve, poor fit] | – |
| COc1cccc(C(=O)N(Cc2cccnc2)c2nc3c(OC)ccc(C)c3s2)c1OC | – | inactive: -18.2% |
| O=C(CNc1cccc(C(F)(F)F)c1)N/N=C/c1ccccc1C(=O)O | inconclusive: 79.4 µM [inhibitor, partial curve, poor fit] | – |
| COc1cc2c(cc1OC)CN(C(=O)CN1CCN(S(=O)(=O)c3ccc(C)c(C)c3)CC1)CC2 | inconclusive: 79.4 µM [inhibitor, partial curve, poor fit] | – |
| CCOC(=O)c1cnc2c(ccc3ccccc32)c1Nc1cccc(C(F)(F)F)c1 | inconclusive: 79.4 µM [inhibitor, partial curve, poor fit] | – |
| O=C(N/N=C/c1ccc([N+](=O)[O-])o1)c1ccccc1NS(=O)(=O)c1cccs1 | active: 56.2 µM | – |
| CCOc1ccc(NC(=O)c2cnn(-c3ccc(C)c(C)c3)c2C2CCN(C(=O)OC(C)(C)C)CC2)cc1 | – | inactive: -16.3% |
| CC(C)OCCOc1ccc2oc(-c3ccco3)cc(=O)c2c1 | inconclusive: 10 µM [inhibitor, partial curve, poor fit] | – |

— PubChem BioAssay AID588591 (National Center for Advancing Translational Sciences (NCATS), 2011)
